Experimental data from the supplement of paper PMC10037445.
Whole data set: some 2,900 compounds, median “NF-kB SEAP reporter activity, fold change vs agonist alone” near 0.99, cut for the highest 2% near 2.6. Some of the results follow.

Key:
[1] = test system: RAW-Dual; test: NF-kB SEAP reporter activity, fold change vs agonist alone; higher = enhanced NF-kB activity; details: library stock concentration (final ~1000-fold dilution): 10 mM
How it was run: (§1)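 After 50 nL of library stock was delivered by pin tool to RAW-Dual macrophages (50,000 cells/well, DMEM, 384-well plates), a PRR agonist was added 1 h later and the plates were kept at 37 °C, 5% CO2. Twenty hours later, IRF was read from supernatant by QuantiLuc luminescence and NF-κB by QuantiBlue absorbance at 620 nm. Reporter activity is stated as fold change over agonist-alone wells. Wells with IncuCyte confluency under 70% of agonist controls in both mask sets were counted as cytotoxic.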

[2] = test system: RAW-Dual; test: NF-kB SEAP reporter activity, fold change vs agonist alone; cytotoxicity flag (confluency mask): not cytotoxic; higher = enhanced NF-kB activity
How it was run: as §1

[3] = test system: RAW-Dual; test: NF-kB SEAP reporter activity, fold change vs agonist alone; cytotoxicity flag (confluency mask): cytotoxic (confluency <70% of control); higher = enhanced NF-kB activity
How it was run: as §1

[4] = cytotoxicity flag (confluency mask): not cytotoxic, agonist: Imiquimod (TLR7) […]
[5] = cytotoxicity flag (confluency mask): not cytotoxic, agonist: MPLA (TLR4) […]
[6] = agonist: ODN 1826 (TLR9) 0.5 ug/mL
[7] = agonist: Pam2CSK4 (TLR2/6) 0.1 ug/mL
[8] = agonist: Pam3CSK4 (TLR2/1) 0.1 ug/mL

CC(=O)OC1(C(C)=O)CCC2C3C=C(Cl)C4=CC(=O)CCC4(C)C3CCC21C (centres undefined)
NF-kB SEAP reporter activity [1, 4]: 1.28
NF-kB SEAP reporter activity [1, 5]: 1.12

CC(=O)OC1(C(C)=O)CCC2C3C=C(Cl)C4=CC(=O)CCC4(C)C3CCC21C (centres undefined) (library stock concentration (final ~1000-fold dilution): 10 mM)
NF-kB SEAP reporter activity ([2]; agonist: LPS (TLR4) 0.1 ug/mL): 1.21
NF-kB SEAP reporter activity [2, 6]: 1.14
NF-kB SEAP reporter activity [2, 7]: 1.08
NF-kB SEAP reporter activity [2, 8]: 1.16

O=C(CCCCCCCC(=O)NCCO)NCCO
NF-kB SEAP reporter activity [1, 4]: 0.913
NF-kB SEAP reporter activity [1, 5]: 1.03

O=C(CCCCCCCC(=O)NCCO)NCCO (library stock concentration (final ~1000-fold dilution): 10 mM)
NF-kB SEAP reporter activity ([2]; agonist: LPS (TLR4) 0.1 ug/mL): 1.2
NF-kB SEAP reporter activity [2, 6]: 0.998
NF-kB SEAP reporter activity [2, 7]: 0.991
NF-kB SEAP reporter activity [2, 8]: 0.856

Cc1c[nH]c(C=C2C(=O)Nc3ccccc32)c1CCC(=O)O (library stock concentration (final ~1000-fold dilution): 10 mM)
NF-kB SEAP reporter activity ([2]; agonist: LPS (TLR4) 0.1 ug/mL): 0.665
NF-kB SEAP reporter activity [2, 6]: 0.926
NF-kB SEAP reporter activity [2, 7]: 0.983
NF-kB SEAP reporter activity [2, 8]: 0.647

Cc1c[nH]c(C=C2C(=O)Nc3ccccc32)c1CCC(=O)O
NF-kB SEAP reporter activity [1, 4]: 0.662
NF-kB SEAP reporter activity [1, 5]: 0.848

CCN(CC)Cc1ccc(C(=O)N(CCc2ccccc2OC)C2CCNC2)cc1 (centres undefined) (library stock concentration (final ~1000-fold dilution): 10 mM)
NF-kB SEAP reporter activity ([2]; agonist: LPS (TLR4) 0.1 ug/mL): 0.9
NF-kB SEAP reporter activity [2, 6]: 0.312
NF-kB SEAP reporter activity [2, 7]: 0.883
NF-kB SEAP reporter activity [2, 8]: 0.613

CCN(CC)Cc1ccc(C(=O)N(CCc2ccccc2OC)C2CCNC2)cc1 (centres undefined)
NF-kB SEAP reporter activity [1, 4]: 0.518
NF-kB SEAP reporter activity [1, 5]: 1.28

CCN(CCCc1ccccc1)CCCc1ccccc1.O=C(O)CC(O)(CC(=O)O)C(=O)O (library stock concentration (final ~1000-fold dilution): 10 mM)
NF-kB SEAP reporter activity ([3]; agonist: LPS (TLR4) 0.1 ug/mL): 1.14
NF-kB SEAP reporter activity [3, 6]: 1.31
NF-kB SEAP reporter activity [3, 7]: 1.02
NF-kB SEAP reporter activity [3, 8]: 1.03

CCN(CCCc1ccccc1)CCCc1ccccc1.O=C(O)CC(O)(CC(=O)O)C(=O)O
NF-kB SEAP reporter activity ([1]; cytotoxicity flag (confluency mask): cytotoxic (confluency <70% of control), agonist: Imiquimod (TLR7) […]): 1.54
NF-kB SEAP reporter activity ([1]; cytotoxicity flag (confluency mask): cytotoxic (confluency <70% of control), agonist: MPLA (TLR4) […]): 1.11

COc1ccc(C(=O)NCc2ccc(OCCN(C)C)cc2)cc1OC.Cl (library stock concentration (final ~1000-fold dilution): 10 mM)
NF-kB SEAP reporter activity ([2]; agonist: LPS (TLR4) 0.1 ug/mL): 0.883
NF-kB SEAP reporter activity [2, 6]: 1.04
NF-kB SEAP reporter activity [2, 7]: 0.932
NF-kB SEAP reporter activity [2, 8]: 1.01

COc1ccc(C(=O)NCc2ccc(OCCN(C)C)cc2)cc1OC.Cl
NF-kB SEAP reporter activity [1, 5]: 1.01

Cc1cc(=O)[nH]c(=S)[nH]1 (library stock concentration (final ~1000-fold dilution): 10 mM)
NF-kB SEAP reporter activity ([2]; agonist: LPS (TLR4) 0.1 ug/mL): 1.18
NF-kB SEAP reporter activity [2, 6]: 1.04
NF-kB SEAP reporter activity [2, 7]: 1.15
NF-kB SEAP reporter activity [2, 8]: 0.9

Cc1cc(=O)[nH]c(=S)[nH]1
NF-kB SEAP reporter activity [1, 4]: 0.942
NF-kB SEAP reporter activity [1, 5]: 1.05

O=S(=O)(NCCSSCCNS(=O)(=O)c1cc(Cl)ccc1Cl)c1cc(Cl)ccc1Cl
NF-kB SEAP reporter activity [1, 4]: 1.13
NF-kB SEAP reporter activity [1, 5]: 1.03

O=S(=O)(NCCSSCCNS(=O)(=O)c1cc(Cl)ccc1Cl)c1cc(Cl)ccc1Cl (library stock concentration (final ~1000-fold dilution): 10 mM)
NF-kB SEAP reporter activity ([2]; agonist: LPS (TLR4) 0.1 ug/mL): 0.705
NF-kB SEAP reporter activity [2, 6]: 0.705
NF-kB SEAP reporter activity [2, 7]: 0.573
NF-kB SEAP reporter activity [2, 8]: 0.312

O.O=c1c(O)c(-c2ccc(O)cc2O)oc2cc(O)cc(O)c12
NF-kB SEAP reporter activity [1, 4]: 0.957
NF-kB SEAP reporter activity [1, 5]: 1.05

O.O=c1c(O)c(-c2ccc(O)cc2O)oc2cc(O)cc(O)c12 (library stock concentration (final ~1000-fold dilution): 10 mM)
NF-kB SEAP reporter activity ([2]; agonist: LPS (TLR4) 0.1 ug/mL): 1.52
NF-kB SEAP reporter activity [2, 6]: 1.13
NF-kB SEAP reporter activity [2, 7]: 1.15
NF-kB SEAP reporter activity [2, 8]: 1.18

O=C1N=C(O)CN1N=Cc1ccc(-c2ccc([N+](=O)[O-])cc2)o1
NF-kB SEAP reporter activity [1, 5]: 1.03
